Results: publication PMC12578348
Results are given in words; binding and its absence hold for the method and conditions named. In cells and extracts the contact can be indirect. Some entries that bind do so weakly or less than the wild type. For part of these data: Tags and fused reporters may be left off the sequences shown.

Amino acid sequences for entries named in this document (tags omitted). Residues count along the entry.
UniProt P03427: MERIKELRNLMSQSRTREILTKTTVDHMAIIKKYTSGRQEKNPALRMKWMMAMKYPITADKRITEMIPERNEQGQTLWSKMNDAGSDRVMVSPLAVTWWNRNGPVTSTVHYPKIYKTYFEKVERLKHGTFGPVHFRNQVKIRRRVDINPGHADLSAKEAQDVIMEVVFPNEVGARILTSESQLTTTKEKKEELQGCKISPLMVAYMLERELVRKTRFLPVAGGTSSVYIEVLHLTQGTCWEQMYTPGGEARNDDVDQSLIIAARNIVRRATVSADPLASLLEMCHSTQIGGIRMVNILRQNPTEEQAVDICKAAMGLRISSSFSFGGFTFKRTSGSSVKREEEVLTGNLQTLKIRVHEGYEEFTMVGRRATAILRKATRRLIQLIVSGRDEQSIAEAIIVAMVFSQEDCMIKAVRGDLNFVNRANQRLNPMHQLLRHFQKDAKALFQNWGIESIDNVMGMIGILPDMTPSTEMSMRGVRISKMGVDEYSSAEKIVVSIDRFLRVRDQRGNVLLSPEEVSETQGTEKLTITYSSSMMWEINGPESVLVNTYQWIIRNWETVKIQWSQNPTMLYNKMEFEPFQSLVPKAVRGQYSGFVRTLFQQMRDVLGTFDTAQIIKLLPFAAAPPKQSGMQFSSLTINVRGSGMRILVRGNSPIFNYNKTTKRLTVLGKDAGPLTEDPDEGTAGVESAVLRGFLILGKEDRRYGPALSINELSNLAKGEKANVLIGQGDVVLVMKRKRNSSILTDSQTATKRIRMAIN
UniProt P11142: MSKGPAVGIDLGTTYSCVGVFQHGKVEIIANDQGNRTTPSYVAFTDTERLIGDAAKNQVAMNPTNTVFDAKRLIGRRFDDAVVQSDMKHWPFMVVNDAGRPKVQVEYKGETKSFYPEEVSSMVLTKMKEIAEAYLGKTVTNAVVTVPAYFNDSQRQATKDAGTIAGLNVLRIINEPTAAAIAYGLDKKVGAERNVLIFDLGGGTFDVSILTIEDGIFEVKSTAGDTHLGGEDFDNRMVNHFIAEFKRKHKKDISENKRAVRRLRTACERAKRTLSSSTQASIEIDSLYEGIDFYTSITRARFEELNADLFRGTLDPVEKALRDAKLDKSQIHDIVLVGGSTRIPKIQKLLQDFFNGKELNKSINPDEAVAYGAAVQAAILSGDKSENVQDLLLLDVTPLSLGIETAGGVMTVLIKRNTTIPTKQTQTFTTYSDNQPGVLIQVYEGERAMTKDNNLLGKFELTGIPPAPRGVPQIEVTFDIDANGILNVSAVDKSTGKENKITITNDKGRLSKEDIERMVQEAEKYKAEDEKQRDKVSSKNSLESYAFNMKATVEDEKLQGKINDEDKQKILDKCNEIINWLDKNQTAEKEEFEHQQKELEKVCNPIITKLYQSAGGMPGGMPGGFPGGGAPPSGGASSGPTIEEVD
UniProt P13473, residues 29-410: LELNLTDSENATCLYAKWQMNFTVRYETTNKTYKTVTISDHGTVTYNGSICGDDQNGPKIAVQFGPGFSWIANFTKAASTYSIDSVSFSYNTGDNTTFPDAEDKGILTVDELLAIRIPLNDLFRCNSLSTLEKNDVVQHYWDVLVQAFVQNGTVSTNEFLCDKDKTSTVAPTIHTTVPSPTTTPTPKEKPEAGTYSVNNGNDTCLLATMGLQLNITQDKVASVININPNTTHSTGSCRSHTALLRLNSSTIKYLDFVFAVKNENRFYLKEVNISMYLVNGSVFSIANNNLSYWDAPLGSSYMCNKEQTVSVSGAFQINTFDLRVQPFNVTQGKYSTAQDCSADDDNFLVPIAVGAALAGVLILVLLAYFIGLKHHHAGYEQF
UniProt P03454, residues 18-565: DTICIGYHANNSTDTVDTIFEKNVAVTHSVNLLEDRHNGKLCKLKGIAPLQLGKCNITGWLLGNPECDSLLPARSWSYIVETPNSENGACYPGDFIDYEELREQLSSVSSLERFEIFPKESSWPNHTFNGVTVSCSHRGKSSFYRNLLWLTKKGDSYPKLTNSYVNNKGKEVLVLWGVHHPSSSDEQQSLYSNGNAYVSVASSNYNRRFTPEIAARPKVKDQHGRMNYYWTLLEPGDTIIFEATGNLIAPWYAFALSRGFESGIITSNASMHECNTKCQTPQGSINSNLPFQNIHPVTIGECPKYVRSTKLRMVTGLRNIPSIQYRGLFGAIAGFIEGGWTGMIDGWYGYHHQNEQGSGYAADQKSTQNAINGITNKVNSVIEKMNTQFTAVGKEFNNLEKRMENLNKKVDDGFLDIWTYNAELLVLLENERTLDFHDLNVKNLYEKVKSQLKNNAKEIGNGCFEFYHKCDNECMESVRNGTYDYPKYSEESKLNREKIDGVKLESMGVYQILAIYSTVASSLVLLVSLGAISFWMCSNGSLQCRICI
UniProt P03430: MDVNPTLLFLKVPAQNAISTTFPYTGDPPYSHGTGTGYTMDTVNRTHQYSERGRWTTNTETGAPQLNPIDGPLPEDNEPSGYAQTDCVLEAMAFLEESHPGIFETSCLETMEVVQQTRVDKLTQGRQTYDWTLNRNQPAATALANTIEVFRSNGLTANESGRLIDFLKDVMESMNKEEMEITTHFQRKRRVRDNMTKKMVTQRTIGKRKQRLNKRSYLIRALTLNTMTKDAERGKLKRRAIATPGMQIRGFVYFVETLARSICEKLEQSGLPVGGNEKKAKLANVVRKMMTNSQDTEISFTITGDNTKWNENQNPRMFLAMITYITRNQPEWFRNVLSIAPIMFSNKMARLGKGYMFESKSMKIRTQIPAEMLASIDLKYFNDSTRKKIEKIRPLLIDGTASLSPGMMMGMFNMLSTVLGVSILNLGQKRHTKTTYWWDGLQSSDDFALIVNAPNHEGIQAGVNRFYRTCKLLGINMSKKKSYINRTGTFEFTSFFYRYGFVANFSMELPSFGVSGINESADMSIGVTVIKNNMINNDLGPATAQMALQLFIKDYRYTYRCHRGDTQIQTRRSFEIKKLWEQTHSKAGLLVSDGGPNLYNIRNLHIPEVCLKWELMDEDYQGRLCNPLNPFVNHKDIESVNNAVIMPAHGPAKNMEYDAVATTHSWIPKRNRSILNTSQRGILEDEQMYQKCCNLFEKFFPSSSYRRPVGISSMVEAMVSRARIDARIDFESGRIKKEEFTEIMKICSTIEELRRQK
UniProt P15682: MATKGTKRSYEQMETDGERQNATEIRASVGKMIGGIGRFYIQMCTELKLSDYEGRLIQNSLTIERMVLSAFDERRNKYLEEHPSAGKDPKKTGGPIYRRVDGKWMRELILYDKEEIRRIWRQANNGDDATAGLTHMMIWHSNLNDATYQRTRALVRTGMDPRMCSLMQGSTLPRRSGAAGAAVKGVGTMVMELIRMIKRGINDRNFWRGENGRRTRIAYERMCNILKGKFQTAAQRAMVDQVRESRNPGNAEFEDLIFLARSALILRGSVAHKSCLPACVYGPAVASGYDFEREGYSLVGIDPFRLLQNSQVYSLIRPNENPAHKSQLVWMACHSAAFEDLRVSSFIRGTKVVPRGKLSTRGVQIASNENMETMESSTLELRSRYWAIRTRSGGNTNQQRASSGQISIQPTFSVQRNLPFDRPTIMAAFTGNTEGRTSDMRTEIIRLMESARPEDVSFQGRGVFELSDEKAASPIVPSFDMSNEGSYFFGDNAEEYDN
UniProt P03470: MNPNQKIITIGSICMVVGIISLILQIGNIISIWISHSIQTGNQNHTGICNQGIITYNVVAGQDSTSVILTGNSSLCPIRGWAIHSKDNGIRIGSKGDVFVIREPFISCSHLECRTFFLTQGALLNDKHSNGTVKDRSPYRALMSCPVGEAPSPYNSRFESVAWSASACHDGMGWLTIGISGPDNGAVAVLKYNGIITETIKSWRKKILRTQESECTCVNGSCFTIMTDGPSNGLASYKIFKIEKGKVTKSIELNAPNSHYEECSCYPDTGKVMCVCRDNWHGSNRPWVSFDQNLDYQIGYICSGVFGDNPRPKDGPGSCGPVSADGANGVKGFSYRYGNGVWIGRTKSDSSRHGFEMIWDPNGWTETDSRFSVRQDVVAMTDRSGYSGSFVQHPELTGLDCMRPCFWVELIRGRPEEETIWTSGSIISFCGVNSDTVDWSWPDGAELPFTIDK
UniProt P05777: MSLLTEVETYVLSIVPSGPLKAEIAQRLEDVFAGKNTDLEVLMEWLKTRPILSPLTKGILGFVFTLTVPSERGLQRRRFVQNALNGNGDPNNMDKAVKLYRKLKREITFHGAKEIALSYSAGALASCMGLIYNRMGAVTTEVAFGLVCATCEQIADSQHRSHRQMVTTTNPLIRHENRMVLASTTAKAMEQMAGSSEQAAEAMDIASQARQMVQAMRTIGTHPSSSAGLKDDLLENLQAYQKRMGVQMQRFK

How the values were obtained:
Test in all cases: co-IP
[1] = target: PB2 (polymerase basic protein 2) of A/WSN/1933 (WSN, H1N1), expressed from pCAGGS (influenza A virus A/WSN/1933 (H1N1)) (UniProt P03427)
[2] = target: T1, TRIM45-V5 (tripartite motif containing 45, V5-tagged) (human) (UniProt Q9H8W5)
T1 sequence: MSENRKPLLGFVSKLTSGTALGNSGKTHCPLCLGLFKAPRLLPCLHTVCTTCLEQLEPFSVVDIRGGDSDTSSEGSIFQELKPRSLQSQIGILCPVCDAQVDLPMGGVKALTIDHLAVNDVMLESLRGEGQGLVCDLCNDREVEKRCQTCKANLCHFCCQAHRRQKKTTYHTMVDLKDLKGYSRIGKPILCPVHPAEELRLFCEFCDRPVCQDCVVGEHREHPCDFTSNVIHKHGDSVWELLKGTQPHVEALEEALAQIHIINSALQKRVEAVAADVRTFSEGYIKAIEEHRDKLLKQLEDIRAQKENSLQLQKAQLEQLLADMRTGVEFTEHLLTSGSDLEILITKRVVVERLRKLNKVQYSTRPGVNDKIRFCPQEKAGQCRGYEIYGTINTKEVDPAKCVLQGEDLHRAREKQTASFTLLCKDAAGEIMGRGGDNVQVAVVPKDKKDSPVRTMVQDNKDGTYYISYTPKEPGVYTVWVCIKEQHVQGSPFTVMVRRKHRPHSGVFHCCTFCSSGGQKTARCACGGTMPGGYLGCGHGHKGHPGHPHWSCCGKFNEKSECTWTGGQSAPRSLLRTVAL

[3] = target: HSC70-Myc (heat shock cognate protein 70, Myc-tagged) (UniProt P11142)
[4] = target: LAMP-2A-Myc (lysosomal-associated membrane protein type 2A, Myc-tagged) (UniProt P13473)
[5] = target: T2, endogenous TRIM45 (human (endogenous in A549)) (UniProt Q9H8W5)
T2 sequence: T1 sequence

| Substance | binding [2] | binding [3] | binding [4] | also measured |
| --- | --- | --- | --- | --- |
| coiled-coil (CC) domain of TRIM45 with a C-terminal GST tag (from UniProt Q9H8W5 281-335) (domain or fragment) |  |  |  | binding [1]: binds |
| HA-Myc of WSN (H1N1) virus (from UniProt P03454) | no binding |  |  |  |
| PB1-Flag of WSN (H1N1) virus (from UniProt P03430 1-757) | no binding |  |  |  |
| NP of WSN (H1N1) virus (from UniProt P15682 1-498) | no binding |  |  |  |
| V5-tagged wild-type PB2 of WSN (H1N1) (from UniProt P03427 1-759) |  | binds | binds |  |
| PB2 of WSN (H1N1) virus, made in infected cells (from UniProt P03427 1-759) | binds | binds | binds | binding [5]: binds |
| PB2 (polymerase basic protein 2) of A/WSN/1933 (WSN, H1N1), expressed from pCAGGS (from UniProt P03427 1-759) | binds | binds | binds |  |
| NA-Myc of WSN (H1N1) virus (from UniProt P03470 1-453) | no binding |  |  |  |
| M1-GST of WSN (H1N1) virus (from UniProt P05777 1-252) | no binding |  |  |  |
